Screen size: about 310,000 compounds; about 14,000 (4.5%) showed an effect of 50% or more. The effect is printed as a negative number. Some of the results follow.
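Also: peak tail current of the secondary pulse compared with the same well before compound.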

Sequence of human ether-à-go-go-related gene (hERG) potassium channel (Q12809 whole entry, looked up): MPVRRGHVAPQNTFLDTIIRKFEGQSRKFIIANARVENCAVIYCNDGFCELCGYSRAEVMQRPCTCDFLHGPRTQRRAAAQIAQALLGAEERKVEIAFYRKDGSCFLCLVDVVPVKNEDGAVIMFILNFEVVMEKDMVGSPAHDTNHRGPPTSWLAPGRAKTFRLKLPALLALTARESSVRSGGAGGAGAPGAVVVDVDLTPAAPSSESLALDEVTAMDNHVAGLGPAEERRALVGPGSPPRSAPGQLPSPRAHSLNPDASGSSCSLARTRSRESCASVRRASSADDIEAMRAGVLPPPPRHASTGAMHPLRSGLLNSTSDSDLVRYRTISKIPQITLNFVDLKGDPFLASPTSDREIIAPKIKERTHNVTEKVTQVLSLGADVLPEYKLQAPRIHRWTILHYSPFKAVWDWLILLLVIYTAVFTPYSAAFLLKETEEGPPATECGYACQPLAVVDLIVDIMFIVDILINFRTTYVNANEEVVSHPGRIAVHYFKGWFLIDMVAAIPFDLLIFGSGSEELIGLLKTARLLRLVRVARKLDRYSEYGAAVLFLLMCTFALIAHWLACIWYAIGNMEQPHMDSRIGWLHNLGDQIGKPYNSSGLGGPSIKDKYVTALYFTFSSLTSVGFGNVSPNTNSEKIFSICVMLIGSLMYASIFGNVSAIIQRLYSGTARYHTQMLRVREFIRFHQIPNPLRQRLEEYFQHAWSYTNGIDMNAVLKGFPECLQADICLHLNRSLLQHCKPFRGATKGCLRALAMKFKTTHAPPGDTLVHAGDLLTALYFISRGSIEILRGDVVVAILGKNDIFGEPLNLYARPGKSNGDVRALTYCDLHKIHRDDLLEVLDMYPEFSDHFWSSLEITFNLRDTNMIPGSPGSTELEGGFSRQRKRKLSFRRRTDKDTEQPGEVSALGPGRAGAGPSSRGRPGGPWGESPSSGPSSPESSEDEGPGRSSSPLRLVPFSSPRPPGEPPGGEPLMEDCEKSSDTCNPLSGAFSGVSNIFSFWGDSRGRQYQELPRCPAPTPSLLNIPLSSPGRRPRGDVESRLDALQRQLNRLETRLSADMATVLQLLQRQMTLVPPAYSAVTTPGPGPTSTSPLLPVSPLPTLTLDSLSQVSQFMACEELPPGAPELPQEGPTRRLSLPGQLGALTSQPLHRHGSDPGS

This experiment has as its target human ether-à-go-go-related gene (hERG) potassium channel (human, UniProt Q12809). Kind of experiment: primary screen, population patch clamp on CHO cells stably expressing hERG.
On to `CCCCC(=O)NC1(C(F)(F)F)C(=O)N(CC(C)C)C2=C1C(=O)CC(C)(C)C2` (centres unmarked), for which the “hERG current change (%, negative = inhibition) at 10uM” value was 5.13%. Turning to `Nc1nnnn1CC(=O)N/N=C/c1ccc(-c2cccc(Cl)c2)o1`, the “hERG current change (%, negative = inhibition) at 10uM” value was found to be 8.79%. In the case of `Cc1cc(CN2C(=O)c3ccccc3C2=O)on1` it was 14.8%; in that of `COC(=O)c1nc(NC(=O)C(C)(C)C)n[nH]1`, -0.145%; in that of `COc1cc(/C=N/NC(=O)c2ccc(F)cc2)ccc1OC(=O)c1ccco1`, -14.1%. Under `COc1cccc(N2CCN(Cc3nc(N)nc(Nc4ccccc4OC)n3)CC2)c1` stands -25.6%; under `CCn1c2ccccc2c2cc(NC(=O)CSc3nnc(-c4ccc(OC)cc4)n3N)ccc21`, -10.9%; under `C=CCSCC1Nc2cc(Cl)c(S(N)(=O)=O)cc2S(=O)(=O)N1` (centres unmarked), 8.41%. In the case of `Cc1ccc(OCCn2cc(C(=S)N3CCCC3)c3ccccc32)cc1C` it was 10.3%; in that of `CCCc1[nH]c2ccc(C#N)cc2c1CCC`, 29.1%. Regarding `O=c1c2cc(NC(=S)NC3CC3)ccc2nc2n1CCCCC2`, the “hERG current change (%, negative = inhibition) at 10uM” value was 0.786%. Under `O=C(c1cc2ccccc2oc1=O)N(Cc1ccc(F)cc1)C1CCS(=O)(=O)C1` (centres unmarked) stands -26.2%; under `CCOc1cc(C(=O)OCC(=O)Nc2ccc(Cl)cn2)ccc1OCC(=O)N1CCOCC1`, -13.9%. In the case of `COc1ccc(CC(=O)N/N=C(\C)CC(=O)Nc2ccc(N(C)C)cc2)cc1` it was 12.4%; in that of `OCc1nc2ccccc2n1CCCCOc1ccccc1`, 0.828%. Consider `COc1ccccc1NC(=O)CSCc1nc2ccccc2[nH]1`, for which the “hERG current change (%, negative = inhibition) at 10uM” value is on record as -14.2%. In the case of `C=CCn1c(O)c(C(C)=NCCN2CCCCC2)c(=O)[nH]c1=O` it was -1.71%; in that of `CC(=O)c1cccc(NC(=O)c2cccc(S(=O)(=O)N3CCOCC3)c2)c1`, -16.5%. In the case of `Cc1c(C(=O)NCC2CCCO2)oc2c(Cl)cccc12` (centres unmarked) it was 6.69%; in that of `Cc1ccc(/C=C2/Sc3ccc(C(=O)NCc4ccccn4)cc3NC2=O)cc1`, 9.04%. Under `CCOCCCNC(=O)N1CCOCC1` stands -6.23%; under `Cc1ccc(CCN2CC(C(=O)O)CC2=O)cc1` (centres unmarked), -0.636%.

Consider `COc1cccc(-c2cc(C(=O)Nc3cnn(Cc4ccccc4C)c3)no2)c1`, for which the “hERG current change (%, negative = inhibition) at 10uM” value is 1.73%.

Turning to `CC(OC(=O)c1ccc([N+](=O)[O-])o1)C(=O)NC1CCCCC1C` (centres unmarked), the “hERG current change (%, negative = inhibition) at 10uM” value is reported as -1.63%.

For the molecule `CCC(C)NC(=O)COC(=O)Cc1sc(N)nc1-c1ccc(C)cc1` (centres unmarked), the “hERG current change (%, negative = inhibition) at 10uM” value is listed as 5.22%.

In the case of `Cc1ccc(NC(=O)C2CCN(C(=O)c3ccc(Cl)cc3)CC2)nc1`, the “hERG current change (%, negative = inhibition) at 10uM” value is -23%.

As for `O=C(Oc1cccc(-n2cnnn2)c1)c1ccccc1Cl`, the “hERG current change (%, negative = inhibition) at 10uM” value was 6.88%. Under `CC(C)(C#CC(=O)[O-])OOC(c1ccccc1)(c1ccccc1)c1ccccc1.[Na+]` stands 12.8%. Under `COCCCN=C1NN=C(c2cc(C)n(-c3ccccc3)c2C)CS1` stands 4.75%; under `CCOP(=O)(OCC)C(NC(=O)/C=C/c1ccc(OC)cc1)c1ccccc1` (centres unmarked), 18.7%; under `Fc1ccccc1Cn1nnc2c(-n3ccnc3)ncnc21`, 6.47%. Under `O=C(Nc1nnc(-c2ccc(F)cc2)o1)c1ccc(S(=O)(=O)N2CCOCC2)cc1` stands -6.82%.

Turning to `O=C(c1cc2ccccc2s1)N1CCN(c2ccccn2)CC1`, the “hERG current change (%, negative = inhibition) at 10uM” value is -11.5%. In the case of `COc1cc(S(=O)(=O)N2CCN(C)CC2)ccc1Cl` it was 16.4%; in that of `COc1cc([N+](=O)[O-])cc(/C=N/NC(=O)C(O)(c2ccccc2)c2ccccc2)c1O`, 5.68%; in that of `Cc1ccc([N+](=O)[O-])cc1NC(=S)NCCc1ccccc1`, -5.31%. Under `CCOC(=O)Cn1nc(C)cc1NC(=O)c1cccnc1` stands 10%; under `Cc1ccc(S(=O)(=O)n2[nH]c(=O)c(CCO)c2C)cc1`, 8.83%. Turning to `CCOC(=O)Cn1nc(-c2ccccc2)ccc1=O`, the “hERG current change (%, negative = inhibition) at 10uM” value is -32%.

In the case of `O=C(c1ccc(CS(=O)Cc2ccccc2Cl)o1)N1CCN(c2ccccn2)CC1` (centres unmarked), the “hERG current change (%, negative = inhibition) at 10uM” value is -5.66%. In the case of `CC1CN(c2nc3ccccn3c(=O)c2/C=C(\C#N)C(N)=O)CC(C)O1` (centres unmarked) it was 21.1%. On to `O=C(Nc1cccnc1)c1cc(-c2ccc(Br)cc2)nc2ccccc12`, for which the “hERG current change (%, negative = inhibition) at 10uM” value is -2.53%. Consider `CS(=O)(=O)N(CC(=O)Nc1ccc(C(N)=O)cc1)C1CCCCC1`, for which the “hERG current change (%, negative = inhibition) at 10uM” value is reported as 5.95%. Under `COc1ccc(Cl)cc1N(C(C)=O)c1nc(C)cc(C)c1C#N` stands 12.1%; under `COc1ccc(S(=O)(=O)NCc2cccnc2)cc1NC(=O)c1ccccc1`, -3.99%.

Regarding `COc1cc(/C=N/NC(=O)CCN2CCN(Cc3ccccc3)CC2)cc(OC)c1OC`, the “hERG current change (%, negative = inhibition) at 10uM” value is given as -29.2%. Under `CSCCC(NC(=O)COc1ccccc1)C(=O)NCC1COc2ccccc2O1` (centres unmarked) stands -16.4%; under `O=C(NC12CC3CC(CC(C3)C1)C2)N1CCN(C2CCCCC2)CC1`, -30.9%; under `Cc1cccc(C(=O)NC2CC3CCCC(C2)N3S(=O)(=O)c2ccccc2)c1` (centres unmarked), -77.2%. Under `COc1ccc(C(=O)CSc2nnc(NC(=O)C3CC(=O)N(c4cccc(OC)c4)C3)s2)cc1` (centres unmarked) stands 15.6%; under `CCN1CCN(C(=S)NC(CC(=O)c2ccccc2)c2ccccc2)CC1` (centres unmarked), -28.4%. Under `CCOc1ccc(OCCNC2CCCC2)cc1` stands -20.5%; under `O=C(Nc1ccc(S(=O)(=O)Nc2nccs2)cc1)c1cccc(F)c1`, -7.36%. In the case of `COC(=O)Cc1ccc(NC(=S)NCc2ccccc2)cc1`, the “hERG current change (%, negative = inhibition) at 10uM” value amounted to 0.941%. Under `C=CCC(NCc1ccccc1)c1ccc(C)o1.Cl` (centres unmarked) stands 1.05%. Under `Cc1ccc(/C=C2\Oc3c(ccc(O)c3CN3CCN(CCO)CC3)C2=O)cc1` stands -10.9%.

In the case of `COc1ccccc1N1CCN(C(=O)CCC(=O)O)CC1`, the “hERG current change (%, negative = inhibition) at 10uM” value is 0.0357%. Under `Cc1c(O)ccc(-c2n[nH]c(C(=O)O)c2-c2nc3ccccc3s2)c1O` stands 10.9%. Under `CC(C)(C)c1cc(CCC(=O)NCc2ccccn2)cc(C(C)(C)C)c1O` stands -10.1%. Under `CCOC(=O)CSC1=C(C#N)C(c2ccco2)C(C(=O)OCc2ccccc2)=C(C)N1` (centres unmarked) stands 2.75%. As to `COc1ccc2nc(C)cc(NCCN3CCOCC3)c2c1`, the “hERG current change (%, negative = inhibition) at 10uM” value worked out at 15.4%. With `CCN1C(=O)c2cccc3c(S(=O)(=O)Nc4c(C)n(C)n(-c5ccccc5)c4=O)ccc1c23`, the “hERG current change (%, negative = inhibition) at 10uM” value was -2.58%. In the case of `CCc1ccc(-c2cc(C)no2)cc1S(=O)(=O)N1CCN(c2ccccc2OC)CC1`, the “hERG current change (%, negative = inhibition) at 10uM” value worked out at 16%. Under `O=S(=O)(CCN1CCOCC1)c1ccc(Cl)cc1` stands 12.6%. Under `CCn1c(-c2cccnc2Cl)nc2ccccc21` stands -6.21%.

On to `O=C(COC(=O)c1ccc(O)cc1O)NC(=O)NCc1ccccc1`, for which the “hERG current change (%, negative = inhibition) at 10uM” value is -6.4%. Take `Cn1cc(/C=N/NC(=O)COc2ccccc2[N+](=O)[O-])c2ccccc21`: the “hERG current change (%, negative = inhibition) at 10uM” value was found to be 23.3%. Under `CC(=NCc1ccc2c(c1)OCO2)c1c(O)n(-c2ccccc2)c(=O)[nH]c1=O` stands -11.8%; under `Cc1ccc(C2=NOC(C)(c3nnc(-c4ccccc4)o3)C2)cc1` (centres unmarked), -12.3%. Regarding `NS(=O)(=O)c1ccc(CCNC(=O)C(=O)NCC2OCCN2C(=O)c2ccc3c(c2)OCO3)cc1` (centres unmarked), the “hERG current change (%, negative = inhibition) at 10uM” value is given as 6.42%. In the case of `COc1ccc(-c2cc(C(=O)N3CCN(c4ccc(F)cc4)CC3)no2)cc1` it was 21.1%; in that of `Cc1noc(C)c1C(=O)Nc1sc2c(c1C(N)=O)CCCCC2`, -0.683%; in that of `O=P(O)(O)CCP(=O)(c1ccccc1)c1ccccc1`, 9.46%. In the case of `COc1cccc(-c2csc(N3CCN(C(=S)Nc4ccccc4Cl)CC3)n2)c1` it was 0.373%; in that of `Cc1ccccc1OP(N)(=O)Oc1ccccc1C`, 21.8%. Under `COc1cccc(CN(C)C(=O)CCNC(=O)c2ccc(Br)cc2)c1` stands 0.786%; under `CCCCOC(=O)c1cccnc1`, 8.53%; under `CCCCN(C(=O)c1cccc(S(=O)(=O)N2CCN(C)CC2)c1)c1c(N)n(CCC)c(=O)[nH]c1=O`, 1.67%. For `COc1ccc(C(=O)C2CCCN(Cc3ccc4nonc4c3)C2)c(OC)c1` (centres unmarked), the “hERG current change (%, negative = inhibition) at 10uM” value is reported as -66.7%. On to `C=CC(C)(O)CCC=C(C)C` (centres unmarked), for which the “hERG current change (%, negative = inhibition) at 10uM” value is 13.2%. As to `O=C(O)CSc1ncccc1C(=O)O`, the “hERG current change (%, negative = inhibition) at 10uM” value is on record as -53.7%.

As to `O=C(O)/C=C\c1ccccc1Oc1cccc(Cl)c1`, the “hERG current change (%, negative = inhibition) at 10uM” value turned out to be 7.3%. For the molecule `O=C(NC(=S)Nc1ccc(S(=O)(=O)Nc2ncccn2)cc1)c1cccc(Br)c1`, the “hERG current change (%, negative = inhibition) at 10uM” value is given as 24.7%.

Take `O=C(Cc1ncc(C(F)(F)F)cc1Cl)NNc1cccc(F)n1`: the “hERG current change (%, negative = inhibition) at 10uM” value was found to be 28.9%.

Consider `COc1ccc(NC(=O)CCN2CC(C)OC(C)C2)c(OC)c1.Cl` (centres unmarked), for which the “hERG current change (%, negative = inhibition) at 10uM” value is given as 13.2%.

As to `C/C(=N/NC(=O)CSc1nc2ccccc2s1)c1ccncc1`, the “hERG current change (%, negative = inhibition) at 10uM” value was -24%.

On to `Cc1ccc(C(C)C)c(OCc2nn(CC(=O)c3ccc(Cl)cc3)c3[n+]2CCCCC3)c1.[Br-]`, for which the “hERG current change (%, negative = inhibition) at 10uM” value is reported as -73.3%.

For the molecule `O=C1COc2ccc(S(=O)(=O)NCCc3ccc(Cl)cc3)cc2N1`, the “hERG current change (%, negative = inhibition) at 10uM” value is recorded as -8.83%.

For the molecule `CN(CC(=O)Nc1cccc(F)c1)CC(=O)NC(c1ccccc1)c1ccccc1`, the “hERG current change (%, negative = inhibition) at 10uM” value is reported as -29.3%.

These data come from PMC4336329 (PLoS ONE, 2015).
